# Reference: US20240245798A1, “NOVEL ANTI-TPBG ANTIBODY AND ANTIBODY-DRUG-CONJUGATES BASED THEREON, THERAPEUTIC METHODS AND USES THEREOF” (Tubulis GmbH, priority 2022, published 2024)
# Read-outs that look alike come from different tables or passages of the source.
# B1: anti-TPBG-P5(PEG24)-VC-PAB-Exatecan DAR8 (conjugate)
# heavy: EVQLVQSGAEVKKPGASVKVSCKASGYSFTGYYMHWVRQAPGQGLEWMGRINPNNGVTLYNQKFKDRVTITRDTSTSTAYMELSSLRSEDTAVYYCARSTMITNYVMDYWGQGTLVTVSS[human IgG1 constant region with changes not spelt out]
# light: EIVMTQSPDSLAVSLGERATINCKASQSVSNDVAWYQQKPGQPPKLLIYYTSSRYAGVPDRFSGSGSGTDFTLTISSLQAEDVAVYYCQQDYNSPPTFGGGTKLEIKRTVAAPSVFIFPPSDEQLKSGTASVVCLLNNFYPREAKVQWKVDNALQSGNSQESVTEQDSKDSTYSLSSTLTLSKADYEKHKVYACEVTHQGLSSPVTKSFNRGEC
# Key:
# MDA-MB-468 cells [1] = test: In vitro cytotoxicity via resazurin assay, comparison with Anti-TPBG comparison ADC2, MDA-MB-468; format: cell-based; conditions: MDA-MB-468 cells with high 5T4 level; 7 days
# BXPC-3 cells = test: In vitro cytotoxicity via resazurin assay, comparison with Anti-TPBG comparison ADC2, BXPC-3; format: cell-based; conditions: BXPC-3 cells with lower 5T4 expression; 7 days
# SW-620 = test: In vitro cytotoxicity via resazurin assay on antigen negative cell line SW-620; format: cell-based; conditions: direct treatment
# [2] = test system: 5T4-negative cells (SW-620); test: Bystander killing, supernatant transfer; format: cell-based; conditions: supernatant from MDA-MB-468 or BXPC-3 after 5 days, SW-620 another 5 days
# Method: To analyze bystander activity of ADCs on target-negative cells, 20.000 5T4-positive cells (MDA-MB-468 or BXPC-3) were incubated with increasing concentrations of ADCs (0-3 μg/ml). After 5 days, half of the cell culture supernatant volumes was transferred to 5.000 5T4-negative cells (SW-620) and incubated for another 5 days. Killing was analyzed by a resazurin-based viability measurement as described above.
# [3] = test system: co-culture of BXPC-3 and SW-620 cells; test: Bystander killing, co-culture; format: cell-based; conditions: BXPC-3 and SW-620, 5 days
# Method: For bystander assay performed as co-culture, 10.000 5T4-positive BXPC-3 cells and 2.000 5T4-negative SW-620 cells were incubated with increasing concentrations of ADC (0-3 μg/ml). After 5 days, cells were harvested and stained with a live/dead stain (Thermo Fisher Scientific) and fluorescently-labeled αTROP-2 (BioLegend) to distinguish between BXPC-3 (TROP-2 positive) and SW-620 (TROP-2 negative) cells. The percentage of viable BXPC-3 and SW-620 cells was analyzed by flow cytometry.
# [4] = test system: MDA-MB-468 and DU-145 target cells; test: Calcein release-based ADCC assay with human NK cells; format: cell-based; conditions: 15 μg/ml, NK:target 4:1, 4 h
# Description: For the Calcein release-based antibody-dependent cellular cytotoxicity (ADCC) assay, peripheral blood mononuclear cells (PBMCs) were isolated from healthy donor buffy coats (purchased from DONAS GmbH) using LeucoSep tubes (Greiner Bio-One) and Histopaque®-1077 (density 1.077 g/ml, Merck) density gradient according to standard protocols. Afterwards, natural killer (NK) cells were MACS (magnetic cell separation)-sorted using human NK cell isolation kit (Miltenyi Biotec) by negative selection according to the manufacturer's instructions yielding untouched human primary NK cells. 5T4-positive target cells MDA-MB-468 (5T4^high) and DU-145 (5T4^med) were stained with 16 μM Calcein AM (Thermo Fisher Scientific). 40.000 NK cells and 10.000 Calcein-stained target cells were incubated at a 4:1 ratio in the presence of 15 μg/ml antibodies or ADCs. Cells permeabilized with 2.5% Triton X 100 (Merck) served as a positive control for maximum Calcein release. After 4 h, supernatants were transferred to a flat black non-binding 96-well plate (Greiner Bio-One) and fluorescence was measured at 485/535 nM via the Infinite […] reader (Tecan). The percent specific killing was calculated by dividing the Calcein released by antibody-mediated killing minus background Calcein release (NKs+targets) from Calcein released by Triton X-permeabilized cells (maximum killing) minus background Calcein release (targets only). Graphs show means of n=2±SEM.
# [5] = test system: HN11218 Head and neck cancer PDX; conditions: for Tumor response: single intravenous injection
# Method: All animal experiments were conducted in accordance with German animal welfare law and approved by local authorities. In brief, a 3×3 mm sample of a patient derived tumor sample (HN11218 Head and neck cancer (H&N) model, EPO Experimentelle Pharmakologie & Onkologie Berlin-Buch GmbH) was subcutaneously implanted into flanks of female immunodeficient NMRI nu/nu mice. Treatment was initiated when tumours reached a mean tumour volume of 0.1-0.15 cm^3. […] Tumour volumes, body weights and general health conditions were recorded throughout the whole study.
# MDA-MB-468 = conditions: 7 days
# BXPC-3 = conditions: 7 days
# DU-145 = conditions: 7 days
# MDA-MB-468 cells [6] = conditions: 5 μg/mL; 24, 48 and 72 h
# [7] = 0.2 mg/ml in at least 80% serum, 37° C., up to 7 days
# [8] = test system: patient derived tumor models; conditions: 10 mg/kg once at day 0, intravenous; lung, endometrial, breast, colon, gastric, Head and Neck, pancreatic, ovarian cancer, Sarcoma, Mesothelioma
# [9] = 10 and 15 mg/kg intravenously on days 1 and 22
# [10] = test system: antigen-positive tumor cells (cell lines with various TPBG expression levels); conditions: all tested cell lines; 7 days
# [11] = test system: MDA-MB-468 cells (5T4 high); conditions: 0.05-12 μg/ml, 72 h
# [12] = 5, 3 and 1 mg/kg
# [13] = test system: Lu9744 squamous non-small cell lung cancer PDX; conditions: all tested dose levels (5, 3, 1 mg/kg), once at day 0, intravenous
molecule,measurement,setting,value
B1,fold improved killing IC50 values compared to Anti-TPBG comparison ADC2,MDA-MB-468 cells [1],1.9 fold
same,Cytotoxic activity,BXPC-3 cells,high cytotoxic activity
same,Effect on antigen negative cell line SW-620 without preincubation with antigen positive cells,SW-620,did not have an effect
same,Bystander activity on target-negative cells after supernatant transfer from target-positive cells,[2],high bystander activity
same,Bystander activity in the co-culture assay,[3],strong bystander activity
same,ADCC activity in human NK cells,[4],did not induce ADCC
same,Tumor response,[5]; 1 mg/kg,started re-growing
same,Tumor response,[5]; 3 mg/kg,strong tumor growth inhibition
same,Tumor response,[5]; 5 mg/kg,Complete tumor remission
same,Bodyweight gain (tolerability),"[5]; all dose-levels (1, 3, 5 mg/kg)",No impact in bodyweight gain
same,IC50,MDA-MB-468,0.0343 µg/mL
same,Minimal viability (EMax in %),MDA-MB-468,10.41%
same,IC50,BXPC-3,0.089 µg/mL
same,Minimal viability (EMax in %),BXPC-3,16.8%
same,IC50,DU-145,0.0723 µg/mL
same,Minimal viability (EMax in %),DU-145,15.3%
same,"DNA-damage markers (active caspase-3, cleaved PARP, phosphorylated H2A.X)",MDA-MB-468 cells [6],induces DNA-damage markers
same,Change in the Drug-to-Antibody Ratio (DAR) after serum incubation,[7],No change
same,Stability of the linker in sera of different species,[7],highly stable
same,Efficacy in patient derived tumor models compared to vehicle,[8],very high efficacy
same,"Changes in body weight, clinical chemistry and hematology",[9],No severe changes
same,fold improved killing IC50 values compared to Anti-TPBG comparison ADC1,[10],18-66 fold
same,"DNA damage (cleaved PARP-, active caspase 3- and pH2AX-positive cells)",[11],concentration-dependent accumulation of DNA damage
same,Exposure profiles (PK analysis),[12],dose proportional exposure profiles
same,Stability of the ADC in vivo (total vs intact ADC),[12],high stability
same,Efficacy in the PDX model compared to the vehicle,[13],high and long-lasting efficacy
